# Measurements: PubChem BioAssay AID1671188 (National Center for Advancing Translational Sciences (NCATS), 2021)
# The campaign covered roughly 100,000 compounds. About 250 (0.25%) were called active. Inconclusive means that the source gave no clear call. Such entries were picked first, then a sample of the others. The call rests on the fitted dose curve; in most records, active means well fitted inhibition curve with a large enough effect; inconclusive means small, poorly fitted or top-dose-only effect; inactive means flat fitted curve, though single readings scatter. No potency is given beside an inconclusive call; the fits are too rough.
# Target: Alanine aminotransferase 2 (Homo sapiens) (UniProt Q8TD30)
# Sequence of UniProt Q8TD30 (Q8TD30 whole entry, looked up): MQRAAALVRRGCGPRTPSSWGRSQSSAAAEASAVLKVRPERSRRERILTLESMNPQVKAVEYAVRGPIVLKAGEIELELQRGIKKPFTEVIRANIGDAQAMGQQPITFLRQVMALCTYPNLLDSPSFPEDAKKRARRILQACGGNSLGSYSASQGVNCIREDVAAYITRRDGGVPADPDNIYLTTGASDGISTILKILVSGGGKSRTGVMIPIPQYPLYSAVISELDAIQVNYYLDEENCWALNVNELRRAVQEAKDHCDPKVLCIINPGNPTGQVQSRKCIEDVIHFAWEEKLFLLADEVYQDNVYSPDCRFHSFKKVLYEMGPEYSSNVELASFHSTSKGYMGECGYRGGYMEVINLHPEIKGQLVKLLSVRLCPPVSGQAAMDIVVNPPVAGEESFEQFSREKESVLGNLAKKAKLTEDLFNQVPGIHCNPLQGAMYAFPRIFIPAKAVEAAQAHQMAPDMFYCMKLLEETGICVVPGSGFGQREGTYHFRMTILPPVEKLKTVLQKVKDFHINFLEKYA
# Experiment: Primary qHTS assay for inhibitors of Glutamate pyruvate transaminase 2 (GPT2); further: nearly all actives have a fitted effect of over 60% in size
# Conditions: Recombinant GPT2, coupled pyruvate oxidase/HRP Amplex Red fluorescence; activity change, negative = inhibition: at 57.7 µM (top of the series) unless noted; series mostly up to 57.7 µM
# Outline: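 GPT2 10ng/uL, a-KG 250uM, L-Ala 2mM, HEPES pH7.5 + 0.0001% Tween; 30 min RT. Then Amplex mix (PO/HRP/ThPP), 30 min RT dark, fluorescence. AOA 50uM used as positive control.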
# On the % scale 0 is the no-effect control and ±100 the full control effect; potency means the concentration at half of the fitted maximal effect; tags describe the fitted curve by direction and shape.
Compound,Potency,"activity change, negative = inhibition",outcome
O=C(N1CCOCC1)N1CCOC[C@H]1c1ncc(-c2ccc(OC(F)(F)F)cc2)[nH]1,"inconclusive [inhibitor, single point]",–,–
COc1ccc(C(=O)NC2CCN(c3cc(-c4ccccc4)[nH]n3)C2)c(C)c1 (stereo unspecified),"inconclusive [inhibitor, single point]",–,–
CN1CC(=O)N(c2cccnc2)Cc2c(NCC3CC3)ncnc21,"inconclusive [inhibitor, single point]",–,–
CCN(CC)C(=O)[C@@H](C)C1CC[C@@]2(C)Cc3sc(Nc4c(Cl)cccc4Cl)nc3[C@@H](C)[C@@H]2[C@H]1O (stereo partly specified),"inconclusive [inhibitor, partial curve, poor fit]",–,–
CN(C)C(=O)N(C)C1CCc2ccccc2C1 (stereo unspecified),–,inactive: -4.2% [at 88.5 µM],–
Cc1nc(C)c(C(=O)N2CC(C)(C)C(C)(O)C2)s1 (stereo unspecified),"inconclusive [inhibitor, single point]",–,–
O=C(Nc1ccc(F)cc1)N1CCC(O)(c2csc(CN3CCN(c4ccccn4)CC3)n2)CC1,"inconclusive [inhibitor, single point]",–,–
CN(C)c1ccc(CN2CCOC[C@H]2c2ncc(-c3cccc(Cl)c3)[nH]2)cc1,"inconclusive [inhibitor, partial curve]",–,–
COc1cc(C)ccc1OCc1cc(C(=O)N(C)Cc2ncccc2C)no1,–,–,inactive
CC(C)CN(CC1CN(C(=O)c2cccc(Cl)c2)CCO1)C(=O)c1cccc2ccccc12 (stereo unspecified),–,inactive: 0.379%,–
CC(C)N1[N]C(=C2C=c3cc(O)ccc3=N2)c2c(N)ncnc21,active: 0.611 µM,–,–
CCNc1cc(N2CCC(CCC(=O)NC3CCCC3)CC2)ncn1,"inconclusive [inhibitor, single point]",–,–
C[C@]1(CO)[C@H]2Cc3sc(NC(=O)c4ccco4)nc3[C@@H](CC(=O)N3CCC(C(N)=O)CC3)[C@]2(C)CC[C@H]1O,–,inactive: -4.22%,–
CCCNC(=O)N1CC(c2nc(CCOc3cccc(C)c3)no2)C1,"inconclusive [inhibitor, single point]",–,–
COc1ccc(NC(=O)CN2C(=O)NC(c3ccccc3Cl)C3=C2COC3=O)c(OC)c1 (stereo unspecified),"inconclusive [inhibitor, partial curve, poor fit]",–,–
CC(C)(C)CC(=O)N1CCC(O)(c2csc(CN3CCc4ccccc4C3)n2)CC1,"inconclusive [inhibitor, single point]",–,–
CNC(=O)c1cc2cc(-c3c(C)noc3C)nc(-c3cccnc3OC)c2o1,"inconclusive [inhibitor, single point]",–,–
COc1ccc2c(c1)C(C(=O)N(Cc1ccc(N(C)C)cc1)c1ccc(C(C)C)cc1)CCC2 (stereo unspecified),"inconclusive [inhibitor, single point]",–,–
O=C(N[C@H]1CCN2C(=O)c3cc(-c4ccsc4)ccc3NC(=O)[C@H]12)c1cccc(F)c1,"inconclusive [inhibitor, single point]",–,–
O=C(NC1CCN(c2cc(-c3ccc(F)cc3)[nH]n2)C1)c1ccccc1F (stereo unspecified),"inconclusive [inhibitor, partial curve]",–,–
CN(Cc1cccc(C(F)(F)F)c1)C1CCOc2ccccc21 (stereo unspecified),"inconclusive [inhibitor, partial curve, poor fit]",–,–
C[S+](=O)([O-])c1ccc(-c2nccc3c(=O)cc(-c4cccnc4)oc23)cc1,"inconclusive [inhibitor, full curve, poor fit]",–,–

Compound,Potency,"activity change, negative = inhibition",outcome
CCNC(=O)N[C@H]1[C@H](O)[C@@H](N2CCN(C(C)=O)CC2)[C@@H]2OC[C@H]1O2,"inconclusive [inhibitor, single point]",–,–
Cc1oc2c(c1C(=O)N1CCN(c3ccccc3)CC1)CN(Cc1ccccc1)CC2,–,–,inactive
CCOC(=O)c1cccc(NC(=O)N2CC[C@@H](CC(=O)N[C@@H](CO)CC(C)C)[C@@H](CC)C2)c1,–,inactive: -6.8%,–
CCc1c(C)nc(-c2ccc(F)cc2)n(CC(=O)Nc2ccc(OC)c(OC)c2)c1=O,–,inactive: -18%,–
Cc1ccc(CN2CCC3(CC2)COCCN3C(=O)OCc2ccccc2)o1,–,–,inactive [at 88.5 µM]
C#CCOc1cccc(CN2CCN3C(=O)CN(C)C(=O)C3C2)c1 (stereo unspecified),"inconclusive [inhibitor, single point]",–,–
Cn1c(=O)n([C@H]2CCN(C(=O)c3ccco3)C2)c2ncccc21,"inconclusive [inhibitor, partial curve, poor fit]",–,–
O=C1CCC(C(=O)NC(CCn2cncn2)c2ccccc2)=NN1 (stereo unspecified),"inconclusive [inhibitor, full curve, poor fit]",–,–
Cc1noc(C)c1S(=O)(=O)N1CCOCCNC(=O)[C@@H]2CCC[C@@H]21,"inconclusive [inhibitor, single point]",–,–
CN1CCN(C(=O)c2cc(COc3ccc(F)cc3F)on2)CC1c1ccccc1 (stereo unspecified),–,inactive: -10.9%,–
COCCCNC(=O)c1cc(-c2ccc(F)cc2)c2nncn2n1,"inconclusive [inhibitor, single point]",–,–
O=S(=O)(c1ccccc1F)N1CC(c2nc(-c3ccncc3)no2)C1,–,inactive: 4.71%,–
COc1ccc(-c2cc(CC3(NCCC(C)C)COC3)no2)cc1,–,inactive: -4.94% [at 88.5 µM],–
CCN(CC1CCOCC1)C(=O)c1cccnc1SC/C=C/c1ccccc1,–,–,inactive
Cc1cccnc1NCCNc1nc(C(C)C)nc2c1cnn2C,"inconclusive [inhibitor, single point]",–,–
Cc1cnc(C(=O)NCCc2ccc(S(=O)(=O)NC(=O)NC3CCCCC3)cc2)cn1,"inconclusive [inhibitor, partial curve, poor fit]",–,–
CC(C)CCN1CCOc2cc(C(=O)NCc3cccs3)ccc2C1,"inconclusive [inhibitor, single point]",–,–
O=C(Cc1ccccc1F)N1CCOc2ccc(CN3CCc4ccccc4C3)cc2C1,–,inactive: 1.3%,–
COCCN1C(=O)c2ccccc2C(C(=O)Nc2nnc(C3CC3)s2)C12CCCC2 (stereo unspecified),–,inactive: 2.73%,–
Cc1ccc(Cl)cc1-n1nc(-c2c(C)nc3scc(CC(=O)NCCC(C)C)n3c2=O)cc1C,"inconclusive [inhibitor, full curve, poor fit]",–,–
Cn1ncc2c(C(=O)N3CCN(Cc4ccccc4)CC3)cc(-c3ccc(Cl)nc3)nc21,"inconclusive [inhibitor, single point]",–,–
Clc1ccccc1Cc1nc(-c2ccc(OC3CCNC3)cc2)no1 (stereo unspecified),–,–,inactive

Compound,Potency,"activity change, negative = inhibition",outcome
CC(C)c1ccc(CC(=O)N2CCCc3ncc(C(=O)NCCCn4ccnc4)cc32)cc1,–,–,inactive
COc1ccccc1C(C)N(C)C(=O)c1csc2nc(-c3ccccc3C)cn12 (stereo unspecified),–,–,inactive
c1ccc(Oc2nccn3c(-c4ccc(CNCc5ccn[nH]5)cc4)cnc23)cc1,–,–,inactive [at 88.5 µM]
O=C1[C@H](CC[C@H](O)c2ccc(F)cc2)[C@@H](c2ccc(O)cc2)N1c1ccc(F)cc1,"inconclusive [inhibitor, single point]",–,–
CN(Cc1ccsc1)C(=O)c1ccc(C#CC(C)(C)O)o1,"inconclusive [inhibitor, full curve, poor fit]",–,–
O=C(NC1CCCC1)N1CCC2(C1)C(=O)N(CCc1ccccc1)c1ccccc12 (stereo unspecified),"inconclusive [inhibitor, single point]",–,–
COc1ccc(C2Cn3nnc(-c4noc(C5CCCCC5)n4)c3CO2)cc1 (stereo unspecified),–,inactive: -7.14%,–
O=C(Cn1c(=O)oc2ccccc21)NC1CCc2nn(CC3CC3)c(=O)n2CC1 (stereo unspecified),"inconclusive [inhibitor, partial curve, poor fit]",–,–
COc1ccc(-c2ccc3ncc(Nc4cccnc4OC)n3n2)cc1OC,"inconclusive [inhibitor, single point]",–,–
Cc1ccc(-c2nnc3ccc(-c4ccoc4)nn23)nc1,"inconclusive [inhibitor, single point]",–,–
CC(C)Oc1cccc2c1c(NC(=O)C1CCN(C)C1)nn2Cc1ccccc1 (stereo unspecified),–,inactive: -0.45%,–
CS(=O)(=O)N(Cc1ccccn1)C1CN(C(=O)CCc2c[nH]c3ccccc23)C1,"inconclusive [inhibitor, single point]",–,–
O=C(NCCc1ccccc1F)c1ccc2nnc(C3CCCC3)n2c1,–,–,inactive
CCOc1ccc(CN2C(=O)C3(CCOCC3)CC2c2nnnn2C(C)(C)C)cc1OC (stereo unspecified),"inconclusive [inhibitor, single point]",–,–
Cc1ccc(C2Cn3nnc(C(=O)N4CCC(C(=O)NCc5ccccc5F)CC4)c3CO2)cc1 (stereo unspecified),–,inactive: -10.2%,–
O=C1NCCCCCCN(S(=O)(=O)c2cccnc2)[C@H]2C[C@H](c3nc(-c4cccnc4)no3)C[C@@H]12,"inconclusive [inhibitor, single point]",–,–
O=C1NCCCCCCN(Cc2ccncc2)[C@@H]2CN(C(=O)CCc3ccccc3)CC[C@@H]12,–,inactive: -4.13%,–
CNCC(=O)N1CCC(n2nccc2NC(=O)Nc2ccccc2OC)CC1,"inconclusive [inhibitor, single point]",–,–
COCCn1ncc(N2CCCC(CC(=O)Nc3ccc(C)cc3C)C2)cc1=O (stereo unspecified),"inconclusive [inhibitor, full curve, poor fit]",–,–
COC1/C=C/C(C)(O)C(SCC(N)C(=O)O)CC(=O)OC(C)C(C)CC/C=C/1C (stereo unspecified),"inconclusive [inhibitor, partial curve, poor fit]",–,–
COc1ccc(-c2cn3cc(C(=O)N4CCCC4)nc3c(=O)n2CC2CC2)c(F)c1,"inconclusive [inhibitor, partial curve, poor fit]",–,–
CN1Cc2ncnc(NCCCO)c2CN(c2ccccc2)C1=O,"inconclusive [inhibitor, partial curve]",–,–
